Paper PMC9925316
Results are given in words; binding and its absence hold for the method and conditions named. Binding seen in cells or lysates may run through a third protein. Some entries that bind do so weakly or less than the wild type.

Amino acid sequences for entries named in this document (tags omitted). A change or cut given only in a name is not applied to a line headed by its entry.
UniProt P01100: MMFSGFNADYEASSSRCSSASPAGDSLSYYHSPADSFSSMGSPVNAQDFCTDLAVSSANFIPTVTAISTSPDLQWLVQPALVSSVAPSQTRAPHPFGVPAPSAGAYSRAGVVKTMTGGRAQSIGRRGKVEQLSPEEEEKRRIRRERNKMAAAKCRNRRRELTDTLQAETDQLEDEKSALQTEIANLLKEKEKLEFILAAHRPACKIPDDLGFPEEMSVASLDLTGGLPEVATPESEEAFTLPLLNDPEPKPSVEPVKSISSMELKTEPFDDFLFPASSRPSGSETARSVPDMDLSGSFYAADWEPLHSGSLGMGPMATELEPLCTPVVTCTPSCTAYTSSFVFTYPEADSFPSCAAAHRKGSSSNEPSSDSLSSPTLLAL
UniProt P15559: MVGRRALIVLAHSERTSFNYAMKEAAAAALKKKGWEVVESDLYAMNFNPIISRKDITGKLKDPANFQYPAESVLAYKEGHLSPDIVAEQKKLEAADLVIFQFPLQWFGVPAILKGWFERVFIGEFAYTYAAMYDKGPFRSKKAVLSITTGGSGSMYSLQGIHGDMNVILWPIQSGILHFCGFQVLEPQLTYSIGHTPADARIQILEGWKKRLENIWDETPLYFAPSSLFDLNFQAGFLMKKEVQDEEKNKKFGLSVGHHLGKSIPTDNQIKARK
UniProt P05412: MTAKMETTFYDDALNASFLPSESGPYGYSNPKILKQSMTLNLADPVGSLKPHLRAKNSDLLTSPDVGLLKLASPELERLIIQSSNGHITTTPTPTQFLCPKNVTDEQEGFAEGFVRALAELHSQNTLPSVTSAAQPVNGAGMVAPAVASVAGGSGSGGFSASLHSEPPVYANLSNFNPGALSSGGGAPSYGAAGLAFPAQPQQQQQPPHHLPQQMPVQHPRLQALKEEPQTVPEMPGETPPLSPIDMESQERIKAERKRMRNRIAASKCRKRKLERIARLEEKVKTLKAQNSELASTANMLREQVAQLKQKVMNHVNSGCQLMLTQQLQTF

Legend:
[1] = target: EGFP-c-Fos fusion protein (human) (UniProt P01100); assay: co-IP; MDA-MB-231 cells transfected with pNQO1-myc-His6 and pEGFP-c-Fos; lysis in ice-cold RIPA/PBS (33% v/v); IP with anti-His6, anti-GFP or normal IgG overnight at 4°C, Protein G-magnetic beads; immunoblot with anti-NQO1 and anti-c-Fos
[2] = target: NQO1-myc-His6 (NAD(P)H:quinone oxidoreductase 1) (human) (UniProt P15559); assay: pull-down; His6-tagged NQO1 affinity-purified and conjugated to Ni-NTA resin; resin incubated 2 h at 4°C with 1 mg total protein of cells expressing EGFP-c-Fos deletion constructs; immunoblot with anti-NQO1 and anti-GFP; only the target purified
[3] = target: c-Jun, endogenous (human (endogenous in a human cancer cell line)) (UniProt P05412); assay: co-IP; endogenous co-IP with rabbit monoclonal anti-c-JUN (Figure S14); lysis in ice-cold RIPA/PBS (33% v/v); cells not given
[4] = target: c-Fos, endogenous (human (endogenous in RKO)) (UniProt P01100); assay: co-IP; endogenous proteins, whole-cell extracts of RKO/pshCont cells; lysis in ice-cold RIPA/PBS (33% v/v); IP with anti-NQO1, anti-c-Fos or IgG; immunoblot with anti-NQO1 and anti-c-Fos

| binding [2] | Substance | other results |
| --- | --- | --- |
|  | NQO1-myc-His6 (NAD(P)H:quinone oxidoreductase 1) (from UniProt P15559 1-274) (enzyme) | binding [1]: binds |
| no binding | EGFP-c-Fos deletion mutant, residues 1-140 (from UniProt P01100 1-140) (domain or fragment) |  |
| binds | EGFP-c-Fos deletion mutant, residues 137-164 (DNA-binding domain) (from UniProt P01100 137-164) (domain or fragment) |  |
| no binding | EGFP-c-Fos deletion mutant, residues 196-380 (from UniProt P01100 196-380) (domain or fragment) |  |
| no binding | EGFP-c-Fos deletion mutant, residues 161-198 (from UniProt P01100 161-198) (domain or fragment) |  |
|  | NQO1, endogenous (from UniProt P15559 1-274) (enzyme) | binding [3]: no binding; binding [4]: binds |
